The results in this text go back to publication PMC9621596.

For the data set, the target named is T1, LexA (Escherichia coli (ExPEC FY26?)) (UniProt B7NSK5).
T1 sequence: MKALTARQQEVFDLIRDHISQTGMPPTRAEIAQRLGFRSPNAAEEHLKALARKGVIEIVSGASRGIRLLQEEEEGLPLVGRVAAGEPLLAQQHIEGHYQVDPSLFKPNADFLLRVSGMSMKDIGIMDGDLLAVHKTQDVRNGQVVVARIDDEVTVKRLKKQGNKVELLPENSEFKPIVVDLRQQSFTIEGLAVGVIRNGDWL
Briefly: EMSA. To be noted: EMSA: 30 min at room temperature, binding buffer, salt and pH not given; 6% native PAGE in 0.5x TBE, 100 V, SYBR Gold stain. On the technique in general: Mobility shift assays separate free from complexed probe on a gel.

As for “TGACCTGGACATCTCGCTGGACCGTGTTGAAGGTGCCGCGCTGGGGTTTTATGAGGCAGCAGCCAGAAGGAGCATCAGACAGGTCTTCAAGGATGAATTCGCGCGGTTATGTGAAGGGGATGAGCAGTCGCCGGAAAAGCGCCCCGTAATTTTAGAGGCGCAGAATGTGTGGATAACCTACAAAGGAAAGCTACCAGGAA (double strand) [epel2.2 promoter, LexA box deleted (MutPepel2.2)]”, the binding entry was “no binding”. Next, “TGACCTGGACATCTCGCTGGACCGTGTTGAAGGTGCCGCGCTGGGGTTTTATGAGGCAGCAGCCAGAAGGAGCATCAGACAGGTCTTCCTGGATGTTGCTGCCGGGTTATGTGAAGGGGATGAGCAGTCGCCGGAAAAGCGCCCCGTAATTTTAGAGGCGCAGAATGTGTGGATAACCTACAAAGGAAAGCTACCAGGAA (double strand) [epel2.2 promoter (Pepel2.2)]”: “binds”; “TGAGGAGGGTAAATCTCTTCAGTAAGCTTAATGGCGGACGCTGCAATTAATTCAGGAAGGTCCGCAAGGTCATCTGTCAGTGGATATGATGAAAAATCGGCGGCAGTTCTGTTAAGAAGCGCTTTAACTAATTCCTTTTCCTTCTCCGGCAACAAGTTGATTAGAGCTACGACTGCTTGCCTGAGTGCGATTAAATCAGC (double strand) [epel2.1 promoter (Pepel2.1)]”: “binds”; “AGCAACGGCTTTTCGTAATGATGGAGGCATTATTCACCTCTCGCAGCCTTGCGCTTATCTTCTTTAATCTTGAAATAAAGGTTTAACAAATAGGTCTTCAGGCCAAATACCAGGCTACCCAGCACACCTATTGCCGCCCACTGTGAGGGCGTGACTTTATCGAGCAACTGTAAAAACCAGTACCCGGCACTACCTGCTGA (double strand) [epel1 promoter, LexA box deleted (MutPepel1)]”: “no binding”. With “GCTGATTTAATCGCACTCAGGCAAGCAGTCGTAGCTCTAATCAACTTGTTGCCGGAGAAGGAAAAGGAATTAGTTAGGGCAATTCTTATTAAAACTGCCGCCGATTTTTCATCATATCCACTGACAGATGACCTTGCGGACCTTCCTGAATTAATTGCAGCGTCCGCCATTAAGCTTACTGAAGAGATTTACCCTCCTCA (double strand) [epel2.1 promoter, LexA box deleted (MutPepel2.1)]” the entry was “no binding”; with “TCAGCAGGTAGTGCCGGGTACTGGTTTTTACAGTTGCTCGATAAAGTCACGCCCTCACAGTGGGCGGCAATAGGTGTGCTGGGTAGCCTGGTATTTGGCCTGCTGACGTACCTGACAAACCTTTATTTCAAGATTAAAGAAGATAAGCGCAAGGCTGCGAGAGGTGAATAATGCCTCCATCATTACGAAAAGCCGTTGCT (double strand) [epel1 promoter (Pepel1)]”, “binds”.
